#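 Interpolation was linear, between the two tested concentrations surrounding the appropriate level; five concentrations were tested over 48 hours in 96-well plates. Abbreviation: GI50, concentration required for 50% inhibition of growth.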 The source made the active and inactive calls. No stated cut-off is given here; in the data, active = GI50 up to about 1.1 µM and inactive = higher.
# Tested on: NCI-H322M
# Assay: DTP human tumour cell line panel, 48 h
row,Structure (SMILES),GI50
1,N=C(N)SCc1ccc2c(c1)S(=O)(=O)c1ccccc1O2,inactive: 20.9 µM
2,C/C(Cc1ccc2c(c1)OCO2)=N\NC(=O)C(C)Sc1nnc(SC(C)C(=O)N/N=C(\C)Cc2ccc3c(c2)OCO3)s1 (centres undefined),inactive: > 100 µM
3,[O-]/[N+](=C\c1ccccc1)[C@H](COCc1ccccc1)c1ccccc1,inactive: > 100 µM
4,CCCCCCc1ccc(CCCCCCCC(=O)O)o1,inactive: > 100 µM
5,CC1CC[C@@]2(OC1)OC1C[C@H]3[C@@H]4CC[C@H]5CC(OC6OC(CO)C(OC7OC(CO)C(O)C(O)C7OC7OC(CO)C(O)C(O)C7O)C(O)C6O)CCC5(C)[C@H]4CCC3(C)C1[C@@H]2C (some centres undefined),inactive: 1.73 µM
6,COC1=C(N2CC2)C(=O)c2nc3n(c2C1=O)CCC3,inactive: 1.86 µM
7,COc1cc(C(=O)OC2CC(C)=CC[C@@]3(C)CC[C@](O)(C(C)C)C23)ccc1O (some centres undefined),inactive: 15.3 µM
8,CC(C)Oc1cc(O)c2c(c1)OCC=C2CCC(=O)O,inactive: 22.3 µM
9,CCc1cccc(C)c1N1C(=O)C(=O)C(c2nc3ccccc3o2)/C(=N/NC(=S)NN)C1=O (centres undefined),inactive: > 100 µM
10,O=S(=O)(/N=S(/Nc1ccccc1)C(F)(F)Cl)c1ccccc1 (centres undefined),inactive: > 100 µM
11,COC(=O)/C=C\C(C#N)(C#N)/N=C/c1ccc(Br)cc1,inactive: 18.3 µM
12,CC(=O)OC1CCC2(C)C(=CC(C3C=C4CC(OC(C)=O)CCC4(C)C4=C3C3CC5OC6(CCC(C)CO6)C(C)C5C3(C)CC4)C3=C2CCC2(C)C3CC3OC4(CCC(C)CO4)C(C)C32)C1 (centres undefined),inactive: 23.1 µM
13,Clc1cccc(/C=N/C23CC4CC(CC(C4)C2)C3)c1Cl,inactive: > 10 µM
14,CN(C)CCNC(=O)c1cccc2c(NCCN(C)C)c3ccccc3nc12,inactive: 2.36 µM
15,CCCCOC(=O)CN1C(=O)c2ccccc2C1=O,inactive: > 100 µM
16,CC(C)(C)[Si](C)(C)OCCCCC1CC2(S(=O)(=O)C3=CC=C=C=C3)ON1CC2S(=O)(=O)c1ccccc1 (centres undefined),inactive: > 100 µM
17,Nc1nc(N)c2ncn(CCOC(c3ccccc3)P(=O)(O)O)c2n1 (centres undefined),inactive: > 100 µM
18,Cc1cccc(C(C)(C)C)c1NC(=O)C(=O)C(c1cnc2ccccc2n1)[N+](=O)[O-] (centres undefined),inactive: > 100 µM
19,COc1ccc(CNc2cc(=O)n(C)c(=O)[nH]2)cc1,inactive: > 100 µM
20,O=C1C(Cl)=C(N2CCN(c3ccccn3)CC2)C(=O)c2c(O)ccc(O)c21,inactive: 2.64 µM
21,CCN(CCCN(CC)C(=O)N[C@@H](Cc1ccccc1)C(=O)NC)C(=O)N[C@@H](Cc1ccccc1)C(=O)NC,inactive: > 100 µM
22,O=C1c2ccccc2-n2nnnc2C2CSCN12 (centres undefined),inactive: > 100 µM
23,O=C1CCCC1C(O)(C(F)(F)Cl)C(F)(F)Cl (centres undefined),inactive: > 10 µM

row,Structure (SMILES),GI50
1,C=C1C=CC2(Br)OC3CC(C)(Cl)C(Br)CC13C2(C)C (centres undefined),inactive: 31.4 µM
2,O=c1[nH]/c(=C/c2ccc(OCc3ccccc3)cn2)c(=O)[nH]/c1=C/c1cccnc1,inactive: 1.47 µM
3,Clc1ccc(OCc2nnc3sc(SSc4nn5c(COc6ccc(Cl)cc6)nnc5s4)nn23)cc1,inactive: > 100 µM
4,O=C(O)CNC(=O)C(CSC(=O)OCC1c2ccccc2-c2ccccc21)NC(=O)CCC(NC(=O)OCC1c2ccccc2-c2ccccc21)C(=O)O (centres undefined),inactive: 49.8 µM
5,CCOC(=O)C(=NN(C)c1ncccc1N)C(=O)OCC,inactive: > 100 µM
6,CC1CC(C)C2=NOS3=C2C1=NO3 (centres undefined),inactive: > 100 µM
7,C=C(C)[C@@H](C(=O)OC)N1C(=O)c2ccccc2C1=O,inactive: > 100 µM
8,O=C1CCC(N2C(=O)c3ccccc3C2=O)C(=O)N1 (centres undefined) [THALIDOMIDE],inactive: > 100 µM
9,CCOc1cccc2ccc[n+](CC)c12,inactive: 99.1 µM
10,CNC1=C(C)C(=O)C2=C(C1=O)C(COC(N)=O)C1(OC)C3NC3CN21 (centres undefined),active: 0.337 µM
11,COc1ccc2c(O)c(S(=O)(=O)c3ccc(C)cc3)c(=O)oc2c1OC,inactive: > 100 µM
12,C=CCc1cccc2cc(C(N)=O)c(=N)oc12,inactive: > 100 µM
13,CN(C)CC/[N+]([O-])=C(/c1ccccc1)C12CC3CC(CC(C3)C1)C2,inactive: 16.8 µM
14,CN(CCc1ccccn1)c1nc(=[N+](C)C)ss1,inactive: > 100 µM
15,CC(=O)N1C(C(=O)NNc2ccccc2)CSC1c1ccccc1 (centres undefined),inactive: > 100 µM
16,Cc1ccc2c(O)c3c(cc2c1)C(=O)c1c2c(cc(O)c1C3=O)C1(C)OC(O2)C(O)C(N(C)C)C1O (centres undefined),inactive: 1.53 µM
17,CC(C)[C@H](O)C(=O)N[C@H]1Cc2ccc3c(c2)[C@]24C5=C(N=C(O5)[C@H](C(C)C)NC1=O)c1nc(Cl)c(o1)-c1c(Cl)[nH]c5cccc(c15)-c1cccc2c1N[C@H]4O3,active: 0.0193 µM
18,C[C@@H]1C(=O)CC2C(C)(C)CCC[C@]2(C)[C@@]12CC[C@]1(C=COC1)O2 (some centres undefined),inactive: 74.5 µM
19,COc1ccc(/N=C/c2ccc(N(CCC#N)S(=O)(=O)c3ccccc3)cc2)cc1,inactive: > 100 µM
20,Cn1c(=O)c2nc(CCCCC(=O)O)[nH]c2n(C)c1=O,inactive: > 100 µM
21,Cc1c2c(OCCN3CCCCC3)nn(C)c(=O)c2c(C)n1-c1ccccc1,inactive: 85.1 µM
22,CC[C@@]1(O)C(=O)OCc2c1c(Cl)c1n(c2=O)Cc2cc3ccccc3nc2-1,inactive: 3.72 µM
23,COc1cc2c(c(OC)c1OC)CCNC2C1=C(O)COC1=O (centres undefined),inactive: > 100 µM

row,Structure (SMILES),GI50
1,COc1cc(C2c3cc4c(cc3OC(NNS(=O)(=O)c3ccc(C)cc3)C2C)OCO4)cc(OC)c1OC (centres undefined),inactive: 1.3 µM
2,CC(=O)Nc1ccc2c(c1)C(=O)c1ccccc1-2,inactive: > 100 µM
3,O=C(CC(=O)N1N=C(N(c2ccccc2)c2ccccc2)CC1c1ccccc1)Nc1ccccc1 (centres undefined),inactive: > 100 µM
4,S=CN1CCCCC1,inactive: > 100 µM
5,CN(C)CCC(/C=C/c1ccccc1)=N\Nc1c(F)c(F)c(F)c(F)c1F,inactive: > 100 µM
6,CCOC(=O)c1cnc2cc3cccccc3n2c1=O,inactive: > 100 µM
7,O=[N+]([O-])c1ccc(Cl)c(C2SCc3nc4ccccc4n32)c1 (centres undefined),inactive: 38.6 µM
8,CC(C)(Cl)C(Br)CCC(Br)(CCl)C(Cl)CBr (centres undefined),inactive: > 10 µM
9,O=c1oc2c3ccc4ccccc4c3n(CCCN3CCCCC3)c2c2ccccc12,inactive: > 100 µM
10,COC(=O)C1=C(C(=O)Nc2cccnc2Cl)N(c2ccc(OC)cc2[N+](=O)[O-])C(c2ccc(C)cc2)=CC1c1ccc(OC)cc1OC (centres undefined),inactive: 16.1 µM
11,CC1(C)C2CCC1(C)[C@H](O)[C@H]2Nc1cc(C(F)(F)F)cc(C(F)(F)F)c1 (some centres undefined),inactive: 5.6 µM
12,COC(=O)/C=C1\SC2(O\C1=N/c1ccccc1)C1CC3CC(C1)CC2C3 (centres undefined),inactive: > 100 µM
13,N#Cc1c(C#N)c(SSc2c(C#N)c(C#N)c(N)n2-c2ccccc2)n(-c2ccccc2)c1N,inactive: 22.7 µM
14,O=c1c2cc(Br)ccc2[nH]c(=S)n1-c1ccc(Br)cc1,inactive: > 100 µM
15,CC(=O)OCc1ccc(O)c(C=O)c1,inactive: 38.2 µM
16,C=C1C[C@@H]2O[C@H]3[C@H]4[C@@H](C[C@@H](C)[C@@H](OC(C)=O)[C@H]42)[C@@H](C)CO[C@@]3(C)[C@H](OC(C)=O)C[C@H]1O,inactive: > 100 µM
17,CN1CCN(C(=S)N(C(=O)c2ccco2)C2CCCCC2)CC1,inactive: > 100 µM
18,CC(C#N)(NO)C(C)(C#N)NO (centres undefined),inactive: > 100 µM
19,O=c1oc2ccc([N+](=O)[O-])cc2cc1Br,inactive: > 100 µM
20,CCOC(=O)CN1C(=O)c2ccc(NC(=O)C(=O)O)cc2S1(=O)=O,inactive: > 100 µM
21,COc1ccccc1N1C(=O)CSC1c1cc(OC)c(OC)c(OC)c1 (centres undefined),inactive: > 41.6 µM
22,CCOc1ccccc1NC(=O)C1=C(C)NC(C)=C(C(=O)Nc2ccccc2OCC)C1c1ccc(NC(C)=O)cc1,inactive: 46.9 µM
23,O=C(O)Cc1c(O)ccc2ccccc12,inactive: > 100 µM

row,Structure (SMILES),GI50
1,O=C1C(Cl)=C(NCCF)C(=O)c2ncccc21,inactive: 1.56 µM
2,COc1cc(C2C(Cl)C(=O)N2NC(=O)c2ccc(N)cc2)ccc1O (centres undefined),inactive: 25.8 µM
3,Nc1ncnc2c1ccn2C/C=C/CO,inactive: > 100 µM
4,CC1(C)N=C(Oc2ccccc2)n2nccc2N1,inactive: > 100 µM
5,CCOC(=O)Nc1sc2c(c1C#N)CCCC2,inactive: > 100 µM
6,COC(=O)c1c(O)ccc2c1c1c(n2CCc2ccccc2)C(=O)c2ccccc2C1=O,inactive: 15.8 µM
7,CC(C)[Si](Oc1ccc(CC2N(C(=O)c3ccc([N+](=O)[O-])cc3)C(CCc3ccccc3)CC2(C)C=O)cc1)(C(C)C)C(C)C (centres undefined),inactive: > 100 µM
8,C=C1c2nc3ccccc3n2C=C(c2ccccc2)N1c1ccccc1,inactive: > 100 µM
9,COc1cc(Cl)cc(N(O)C(C)=O)c1OCc1ccccc1,inactive: 57.9 µM
10,O=C(OCc1ccc([N+](=O)[O-])cc1)N1c2ccccc2[C@@]23O[C@]24CCC[C@H]3C#C/C=C\C#C[C@H]14,inactive: > 100 µM
11,O=C1OC(CN2CCOCC2)CN1/N=C/c1ccc([N+](=O)[O-])o1 (centres undefined) [FURALTADONE],inactive: 36 µM
12,CC1=NN(C(=O)CSc2nc3ccc(I)cc3c(=O)n2Cc2ccccc2)C(=O)C1,inactive: 33.7 µM
13,CCOC(=O)C1(C(=O)OCC)C[C@H]2CON=C2[C@@H]1c1ccc(C(F)(F)F)cc1,inactive: > 100 µM
14,Cn1c(-c2c(C3=CC(=O)N(c4ccccc4)C3=O)c3ccccc3n2C)cc2ccccc21,inactive: 60.8 µM
15,COC(=O)CCC(NC(=S)N/N=C(\C)c1cnc2ccccc2n1)C(=O)OC (centres undefined),inactive: 28.4 µM
16,C/C=C/C=C/C1=NN(c2cccc(S(=O)(=O)O)c2)C2(C1)C(Cl)C(=O)N2c1nc2ccccc2s1 (centres undefined),inactive: 18.2 µM
17,CC(O)c1cc2c(s1)C(=O)c1c(C(C)O)csc1C2=O (centres undefined),active: 0.153 µM
18,CC1=C(C(=O)NNC(=O)c2ccccc2O)CC(C(=O)NNC(=O)c2ccccc2O)=C(C)N1,inactive: 6.35 µM
19,C=CCNC(=S)OCCCCCCCCCC,inactive: 27.3 µM
20,Cn1ccnc1Sc1ccc(/C=N/c2ccc3nc(SCC(=O)NC4CCCCC4)sc3c2)cc1[N+](=O)[O-],inactive: 15.6 µM

# Reference: ChEMBL document CHEMBL1201862, “PubChem BioAssay data set” (2004)
